Reference: publication PMC5892938
The list shows a part of the results. At the low end of the ranking the order means little.

target: GST-SBP-SLBP (stem-loop binding protein) (UniProt Q14493); test: targeted RNA Bind-n-Seq; settings: RBNS binding buffer: 25 mM Tris pH 7.5, 150 mM KCl, 3 mM MgCl2, 0.1% Tween, 0.5 mg/mL BSA, 1 mM DTT; 27 nM protein, 750 pM RNA pool; temperature not stated; high values mean tight binding;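 further: DESeq read counts versus GST-SBP nonspecific binding control pulldown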

| Sequence | binding signal (log2 fold change) |
| --- | --- |
| GGUCACGUCUCAAUCAACUCUACUUCAGGAGUUUCCUCCUGUUAAUUCAACAGCUCGCAGUCAAG | 0.0516 |
| GGUCACGUCUCAAUCAACUCUACUUCCAGGGAAACCCCUGGUAUACUCAACAGCUCGCAGUCAAG | 0.362 |
| GGUCACGUCUCAAUCAACUCUUCCCCCAGGGAAAUCCCUGGUUAAUUCAACAGCUCGCAGUCAAG | 0.0614 |
| GGUCACGUCUCAAUCAACUCAUCUCCCAGGGAAAUCCCUGGUUUUCUCAACAGCUCGCAGUCAAG | 0.27 |
| GGUCACGUCUCAAUCAACUCUAAAGAGGGGGGGAAAACCCCUUUGCCCUCCGUAUCAACAGCUCGCAGUCAAG | 0.296 |
| GGUCACGUCUCAAUCAACUCCAAAGAGGGGGGGAAAACCCCUUUGCCCUCGUCAUCAACAGCUCGCAGUCAAG | -0.0842 |
| GGUCACGUCUCAAUCAACUCAUUCUCCAGGGAAAGCCCUGGUAUUCUCAACAGCUCGCAGUCAAG | 0.053 |
| GGUCACGUCUCAAUCAACUCAAGGUCAGGAGUUUCCUCCUGUAUAUUCAACAGCUCGCAGUCAAG | 0.0679 |
| GGUCACGUCUCAAUCAACUCUCAAGAGGGGGGGAAAACCCCUUUACCCUCACACUCAACAGCUCGCAGUCAAG | 0.134 |
| GGUCACGUCUCAAUCAACUCAAUUUCAGGAGUUUACUCCUGCUUUCUCAACAGCUCGCAGUCAAG | 0.0184 |
| GGUCACGUCUCAAUCAACUCUAUCUCCAGGGAAACCCCUGGUAUAUUCAACAGCUCGCAGUCAAG | 0.148 |
| GGUCACGUCUCAAUCAACUCAUCUUCAGGAGUUUUCUCCUGCUUUCUCAACAGCUCGCAGUCAAG | 0.188 |
| GGUCACGUCUCAAUCAACUCAUCGUCCAGGGAAAACCCUGGUUUAUUCAACAGCUCGCAGUCAAG | -0.206 |
| GGUCACGUCUCAAUCAACUCCCCAGAGGGGGGGAAAACCCCUUUACCCUCGAUAUCAACAGCUCGCAGUCAAG | 0.0183 |
| GGUCACGUCUCAAUCAACUCAACAGAGGGGGGGAAAACCCCUUUACCCUCACUUUCAACAGCUCGCAGUCAAG | -0.312 |
| GGUCACGUCUCAAUCAACUCAUUUCCAGGAGUUUACUCCUGUAUUUUCAACAGCUCGCAGUCAAG | -0.05 |
| GGUCACGUCUCAAUCAACUCUUUAGAGGGGGGGAAAACCCCUUUGCCCUCCAUGUCAACAGCUCGCAGUCAAG | -0.0101 |
| GGUCACGUCUCAAUCAACUCUAUCUCCAGGGAAAUCCCUGGCAAACUCAACAGCUCGCAGUCAAG | 0.0496 |
| GGUCACGUCUCAAUCAACUCGUUUUCAGGAGUUUUCUCCUGCAAUUUCAACAGCUCGCAGUCAAG | -0.0626 |
| GGUCACGUCUCAAUCAACUCAACUCCAGGAGUUUGCUCCUGCUUUCUCAACAGCUCGCAGUCAAG | 0.0357 |
| GGUCACGUCUCAAUCAACUCUAUCUCCAGGGAAAGCCCUGGUUUACUCAACAGCUCGCAGUCAAG | -0.0967 |
| GGUCACGUCUCAAUCAACUCUUCCUCCAGGGAAAUCCCUGGUUAAUUCAACAGCUCGCAGUCAAG | 0.00749 |
| GGUCACGUCUCAAUCAACUCAAUCUCCAGGGAAAUCCCUGGUUUUUUCAACAGCUCGCAGUCAAG | -0.0897 |
| GGUCACGUCUCAAUCAACUCCUACGAGGGGGGGAAAACCCCUUUACCCUCAACAUCAACAGCUCGCAGUCAAG | 0.0891 |
| GGUCACGUCUCAAUCAACUCAUCUCCCAGGGAAAUCCCUGGCAUACUCAACAGCUCGCAGUCAAG | -0.123 |

| Sequence | binding signal (log2 fold change) |
| --- | --- |
| GGUCACGUCUCAAUCAACUCUUUUUCCAGGGAAAACCCUGGUAUACUCAACAGCUCGCAGUCAAG | -0.194 |
| GGUCACGUCUCAAUCAACUCUAUGUCAGGAGUUUUCUCCUGCUUAUUCAACAGCUCGCAGUCAAG | -0.0612 |
| GGUCACGUCUCAAUCAACUCAUCUCCAGGAGUUUCCUCCUGCAUUCUCAACAGCUCGCAGUCAAG | 0.086 |
| GGUCACGUCUCAAUCAACUCAACUUCAGGAGUUUGCUCCUGUUUUUUCAACAGCUCGCAGUCAAG | 0.066 |
| GGUCACGUCUCAAUCAACUCAAUUCCAGGAGUUUCCUCCUGCAUAUUCAACAGCUCGCAGUCAAG | 0.179 |
| GGUCACGUCUCAAUCAACUCAUCGGCCAGGGAAAUCCCUGGGAAAUUCAACAGCUCGCAGUCAAG | -0.153 |
| GGUCACGUCUCAAUCAACUCAUUUGCAGGAGUUUCCUCCUGGUAUCUCAACAGCUCGCAGUCAAG | -0.05 |
| GGUCACGUCUCAAUCAACUCAUCCUCCAGGGAAAGCCCUGGUAUACUCAACAGCUCGCAGUCAAG | -0.184 |
| GGUCACGUCUCAAUCAACUCUAUCCCCAGGGAAAGCCCUGGCAAAUUCAACAGCUCGCAGUCAAG | 0.0174 |
| GGUCACGUCUCAAUCAACUCUUUUCCCAGGGAAAUCCCUGGUUAUCUCAACAGCUCGCAGUCAAG | -0.000882 |
| GGUCACGUCUCAAUCAACUCUUUUCCAGGAGUUUUCUCCUGCUUACUCAACAGCUCGCAGUCAAG | 0.0404 |
| GGUCACGUCUCAAUCAACUCAAUCUCAGGAGUUUGCUCCUGUAAAUUCAACAGCUCGCAGUCAAG | 0.105 |
| GGUCACGUCUCAAUCAACUCUUCUUCAGGAGUUUUCUCCUGUUAUCUCAACAGCUCGCAGUCAAG | 0.00981 |
| GGUCACGUCUCAAUCAACUCAAUCUCCAGGGAAAGCCCUGGCUUAUUCAACAGCUCGCAGUCAAG | -0.0396 |
| GGUCACGUCUCAAUCAACUCAACUUCAGGAGUUUACUCCUGUUUUCUCAACAGCUCGCAGUCAAG | -0.075 |
| GGUCACGUCUCAAUCAACUCAUUAGAGGGGGGGAAAACCCCUUUGCCCUCACUUUCAACAGCUCGCAGUCAAG | -0.739 |
| GGUCACGUCUCAAUCAACUCUUCCUCCAGGGAAAUCCCUGGCUAUUUCAACAGCUCGCAGUCAAG | -0.174 |
| GGUCACGUCUCAAUCAACUCUUCUUCCAGGGAAAGCCCUGGUUUUUUCAACAGCUCGCAGUCAAG | -0.149 |
| GGUCACGUCUCAAUCAACUCAUACGAGGGGGGGAAAACCCCUUUACCCUCACAUUCAACAGCUCGCAGUCAAG | -0.606 |
| GGUCACGUCUCAAUCAACUCCAUAGAGGGGGGGAAAACCCCUUUGCCCUCGAAUUCAACAGCUCGCAGUCAAG | -0.668 |
| GGUCACGUCUCAAUCAACUCUAUCGAGGGGGGGAAAACCCCUUUACCCUCUCCAUCAACAGCUCGCAGUCAAG | -0.0608 |
| GGUCACGUCUCAAUCAACUCUAUUCCAGGAGUUUUCUCCUGUUAUCUCAACAGCUCGCAGUCAAG | 0.13 |
| GGUCACGUCUCAAUCAACUCAAUUCCAGGAGUUUACUCCUGCUAUCUCAACAGCUCGCAGUCAAG | 0.009 |
| GGUCACGUCUCAAUCAACUCUUCAGAGGGGGGGAAAACCCCUUUGCCCUCACUAUCAACAGCUCGCAGUCAAG | -0.266 |
| GGUCACGUCUCAAUCAACUCUUCGCCCAGGGAAACCCCUGGUAAUCUCAACAGCUCGCAGUCAAG | 0.384 |

| Sequence | binding signal (log2 fold change) |
| --- | --- |
| GGUCACGUCUCAAUCAACUCACAAGAGGGGGGGAAAACCCCUUUACCCUCAUUCUCAACAGCUCGCAGUCAAG | -0.322 |
| GGUCACGUCUCAAUCAACUCCAUCGAGGGGGGGAAAACCCCUUUGCCCUCACAAUCAACAGCUCGCAGUCAAG | 0.0821 |
| GGUCACGUCUCAAUCAACUCAUCCUCCAGGGAAAUCCCUGGCUUUCUCAACAGCUCGCAGUCAAG | -0.0478 |
| GGUCACGUCUCAAUCAACUCUAUCCCCAGGGAAAACCCUGGUUAUCUCAACAGCUCGCAGUCAAG | 0.0418 |
| GGUCACGUCUCAAUCAACUCUAUUUCCAGGGAAAACCCUGGCUUAUUCAACAGCUCGCAGUCAAG | -0.128 |
| GGUCACGUCUCAAUCAACUCAACUUCCAGGGAAACCCCUGGCUUAUUCAACAGCUCGCAGUCAAG | -0.237 |
| GGUCACGUCUCAAUCAACUCAACUUCCAGGGAAAACCCUGGUUAUCUCAACAGCUCGCAGUCAAG | 0.208 |
| GGUCACGUCUCAAUCAACUCAACUUCAGGAGUUUACUCCUGUAUACUCAACAGCUCGCAGUCAAG | 0.0316 |
| GGUCACGUCUCAAUCAACUCAUUUUCAGGAGUUUUCUCCUGCUUUUUCAACAGCUCGCAGUCAAG | -0.11 |
| GGUCACGUCUCAAUCAACUCCCUAGAGGGGGGGAAAACCCCUUUACCCUCAAUGUCAACAGCUCGCAGUCAAG | 0.558 |
| GGUCACGUCUCAAUCAACUCUUACGAGGGGGGGAAAACCCCUUUACCCUCAUUAUCAACAGCUCGCAGUCAAG | -0.513 |
| GGUCACGUCUCAAUCAACUCAUCUCCCAGGGAAACCCCUGGUAAUUUCAACAGCUCGCAGUCAAG | -0.157 |
| GGUCACGUCUCAAUCAACUCUUCCCCCAGGGAAAACCCUGGCAUAUUCAACAGCUCGCAGUCAAG | -0.128 |
| GGUCACGUCUCAAUCAACUCUUAAGAGGGGGGGAAAACCCCUUUACCCUCCACGUCAACAGCUCGCAGUCAAG | -0.194 |
| GGUCACGUCUCAAUCAACUCUUUUCCCAGGGAAACCCCUGGCUUUUUCAACAGCUCGCAGUCAAG | -0.104 |
| GGUCACGUCUCAAUCAACUCAUUCUCAGGAGUUUACUCCUGCUAAGUCAACAGCUCGCAGUCAAG | -0.109 |
| GGUCACGUCUCAAUCAACUCAUCCCCAGGAGUUUCCUCCUGCAUUUUCAACAGCUCGCAGUCAAG | -0.0674 |
| GGUCACGUCUCAAUCAACUCAAAAGAGGGGGGGAAAACCCCUUUGCCCUCACUUUCAACAGCUCGCAGUCAAG | 0.573 |
| GGUCACGUCUCAAUCAACUCUUCCUCAGGAGUUUCCUCCUGCUUUUUCAACAGCUCGCAGUCAAG | 0.179 |
| GGUCACGUCUCAAUCAACUCAUCGUCCAGGGAAAGCCCUGGCUUAUUCAACAGCUCGCAGUCAAG | 0.156 |
| GGUCACGUCUCAAUCAACUCAUCCGCAGGAGUUUACUCCUGGUAAUUCAACAGCUCGCAGUCAAG | 0.207 |
| GGUCACGUCUCAAUCAACUCAUUCCCCAGGGAAAUCCCUGGUUUUUUCAACAGCUCGCAGUCAAG | 0.0742 |
| GGUCACGUCUCAAUCAACUCAGUCUCAGGAGUUUCCUCCUGUUUAUUCAACAGCUCGCAGUCAAG | -0.00694 |
| GGUCACGUCUCAAUCAACUCAUUCCCAGGAGUUUCCUCCUGCAUACUCAACAGCUCGCAGUCAAG | 0.0898 |
